Results on 15 sequences are retold here after the supplement of paper PMC7826260.

This is one part of the list. Cleavage of a single-stranded DNA pool by Rep nickase domains was read by sequencing (1 h at 37 °C, 3 µM enzyme); the outer parts of the 90-letter strands are left off. Uncut reads are compared with the no-enzyme pool on a log2 scale; strong cutting gives strongly negative numbers. There is no active / inactive call. Counts are relative to all reads, so uncut sequences can rise above 0 when many others are cut.

Common to all, as to assay: uncleaved DNA left, log2 of reads against the no-enzyme library (log2 ratio); higher = less cleavage (more negative = more Rep cleavage of the k-mer); sequences stand for … in CTCGTCCG…ACCGGAGA
Assay [1] has as its system T1, Rep nickase domain of Muscovy duck circovirus.
T1 sequence (Rep 1-111, printed without the tag): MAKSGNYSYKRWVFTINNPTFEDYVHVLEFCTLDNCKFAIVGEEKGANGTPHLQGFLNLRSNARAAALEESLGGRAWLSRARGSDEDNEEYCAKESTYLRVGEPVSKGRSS
The protocol:
(§1)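 A pool of 90-nt single-stranded DNAs with seven random bases just before the constant AC of the nick site (name = the seven bases) was cut by 3 µM recombinant His6-SUMO-tagged Rep nickase domain (300 nM DNA, 50 mM HEPES pH 8.0, 50 mM NaCl, 1 mM MnCl2, 1 h, 37 °C, three replicates). Uncut DNA was amplified and sequenced.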

Assay [2] concerns T2, Rep nickase domain of banana bunchy top virus.
T2 sequence (Rep 1-94, printed without the tag): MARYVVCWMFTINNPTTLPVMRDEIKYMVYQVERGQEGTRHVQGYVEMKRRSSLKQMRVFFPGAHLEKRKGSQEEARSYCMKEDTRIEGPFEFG
The protocol:
as §1

Assay [3] has as its system T3, Rep nickase domain of cabbage leaf curl virus.
T3 sequence (Rep 1-116, printed without the tag): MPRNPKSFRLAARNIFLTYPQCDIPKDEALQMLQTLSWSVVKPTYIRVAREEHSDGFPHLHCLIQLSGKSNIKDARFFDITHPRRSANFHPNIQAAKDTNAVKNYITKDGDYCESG
Here is the method:
as §1

The test system of assay [4] is T4, Rep nickase domain of chickpea chlorotic dwarf virus.
T4 sequence (Rep 1-124, printed without the tag): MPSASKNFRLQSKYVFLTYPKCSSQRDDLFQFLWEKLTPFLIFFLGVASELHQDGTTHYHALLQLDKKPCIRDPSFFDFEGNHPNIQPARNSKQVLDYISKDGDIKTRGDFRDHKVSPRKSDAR
The protocol: as §1
The test system of assay [5] is T5, Rep nickase domain of faba bean necrotic yellows virus.
T5 sequence (Rep 1-98, printed without the tag): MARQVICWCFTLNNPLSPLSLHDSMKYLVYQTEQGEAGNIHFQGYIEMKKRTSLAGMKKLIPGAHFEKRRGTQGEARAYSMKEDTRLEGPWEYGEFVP
The protocol: as §1
Assay [6] deals with T6, Rep nickase domain of maize striate mosaic virus.
T6 sequence (Rep 1-117, printed without the tag): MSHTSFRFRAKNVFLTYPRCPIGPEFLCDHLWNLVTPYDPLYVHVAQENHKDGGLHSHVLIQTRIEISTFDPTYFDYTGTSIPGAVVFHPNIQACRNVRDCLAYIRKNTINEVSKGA
Here is the method:
as §1

For assay [7], the system named is T7, Rep nickase domain of porcine circovirus 2.
T7 sequence (Rep 2-116, printed without the tag): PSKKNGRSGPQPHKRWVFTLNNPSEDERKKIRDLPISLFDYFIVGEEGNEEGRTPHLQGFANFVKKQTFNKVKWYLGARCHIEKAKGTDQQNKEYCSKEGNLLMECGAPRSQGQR
The protocol:
as §1

In assay [8] the test system is T8, Rep nickase domain of tomato golden mosaic virus.
T8 sequence (Rep 1-124, printed without the tag): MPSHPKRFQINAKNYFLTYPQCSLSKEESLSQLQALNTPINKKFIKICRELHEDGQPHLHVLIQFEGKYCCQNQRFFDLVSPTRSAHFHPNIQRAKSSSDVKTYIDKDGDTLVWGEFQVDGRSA
The protocol:
as §1

The test system of assay [9] is T9, Rep nickase domain of tomato yellow leaf curl virus.
T9 sequence (Rep 1-136, printed without the tag): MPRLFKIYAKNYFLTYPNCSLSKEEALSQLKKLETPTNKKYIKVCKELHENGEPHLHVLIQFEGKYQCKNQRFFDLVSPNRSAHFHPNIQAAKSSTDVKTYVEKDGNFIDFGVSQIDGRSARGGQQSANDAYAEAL
Here is the method:
as §1

In assay [10] the test system is T10, Rep nickase domain of wheat dwarf virus.
T10 sequence (Rep 1-137, printed without the tag): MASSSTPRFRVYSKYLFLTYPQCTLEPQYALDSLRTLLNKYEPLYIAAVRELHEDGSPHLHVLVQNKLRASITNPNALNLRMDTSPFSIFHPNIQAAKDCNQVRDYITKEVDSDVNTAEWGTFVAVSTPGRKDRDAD
The protocol:
as §1

Consider CACAGTA, for which the “uncleaved DNA left (log2)” value in assay [1] was -0.00219; in [2], -0.0327; in assay [3], -0.266; in assay [4] it was -2.15; in [5] it was -0.00828; in [6], -0.709. Further, the “uncleaved DNA left (log2)” value is -0.137 in assay [7], -0.019 in assay [8], 0.078 in assay [9] and 0.054 in assay [10].

CCCACGT: the “uncleaved DNA left (log2)” value in [1] was 0.0922; in assay [2], -0.102; in [3], 0.186; in assay [4], -0.203; in assay [5], -0.00451; in [6] it was -0.237. In addition, the “uncleaved DNA left (log2)” value in assay [7] was -0.086; in [8] it was -0.106; in assay [9], -0.0796; in [10], -0.156.

Turning to GCACATA, the “uncleaved DNA left (log2)” value in assay [1] was 0.0101; in [2] it was -0.0443; in assay [3] it was 0.073; in assay [4], 0.624; in assay [5], -0.111; in [6], 0.211. The “uncleaved DNA left (log2)” value in assay [7] was 0.131; in [8], -0.12; in assay [9] it was 0.0357; in assay [10] it was 0.0301.

In the case of AGCTAGG, the “uncleaved DNA left (log2)” value was 0.193 in assay [1]; 0.202 in [2]; 0.0104 in assay [3]; 0.785 in assay [4]; 0.2 in [5]; 1.21 in assay [6]. Further, the “uncleaved DNA left (log2)” value in assay [7] worked out at 0.223; in assay [8] it was 0.189; in assay [9] it was 0.0345; in [10] it was 0.156.

For the sequence TACCGCA, the “uncleaved DNA left (log2)” value is 0.0445 in [1]; 0.0578 in assay [2]; -0.452 in assay [3]; -1.94 in assay [4]; 0.025 in [5]; -1.11 in assay [6]. The “uncleaved DNA left (log2)” value was -0.41 in assay [7], -0.0329 in assay [8], -0.0719 in assay [9] and -0.233 in assay [10].

For the sequence ATGTCCT, the “uncleaved DNA left (log2)” value in assay [1] is -0.374; in assay [2], -0.16; in assay [3], -0.204; in assay [4], -1.9; in assay [5], -0.124; in assay [6] it was -0.323. Further, the “uncleaved DNA left (log2)” value in assay [7] is -3.2; in assay [8] it was -0.0739; in assay [9] it was -0.0486; in assay [10] it was -0.132.

For the sequence GCTGATA, the “uncleaved DNA left (log2)” value in assay [1] amounted to 0.151; in assay [2], 0.138; in [3], 0.08; in assay [4], 0.267; in [5] it was 0.139; in assay [6], 0.95. Moreover, the “uncleaved DNA left (log2)” value in [7] worked out at 0.126; in assay [8], 0.242; in assay [9], 0.21; in [10] it was 0.103.

Take GTTCGGT: the “uncleaved DNA left (log2)” value was -0.0253 in assay [1]; 0.0765 in [2]; 0.306 in [3]; 0.853 in assay [4]; -0.00635 in assay [5]; 1.51 in assay [6]. Besides, the “uncleaved DNA left (log2)” value in assay [7] is 0.0747; in assay [8] it was 0.0759; in [9] it was 0.0428; in assay [10], -0.000254.

On to TGAGGAT, for which the “uncleaved DNA left (log2)” value was 0.0028 in [1]; 0.113 in assay [2]; 0.39 in assay [3]; 1.66 in assay [4]; -0.0496 in assay [5]; 1.93 in assay [6]. In addition, the “uncleaved DNA left (log2)” value in assay [7] is 0.201; in [8], 0.211; in assay [9], -0.0565; in [10] it was 0.0553.

Consider GTTAAGA, for which the “uncleaved DNA left (log2)” value in assay [1] is -0.109; in assay [2] it was 0.0938; in [3], 0.265; in assay [4] it was 0.73; in assay [5] it was -0.046; in assay [6], 1.46. Also, the “uncleaved DNA left (log2)” value was 0.118 in [7], 0.079 in [8], -0.0203 in assay [9] and 0.0467 in assay [10].

Regarding TGAAATA, the “uncleaved DNA left (log2)” value was -0.000525 in [1]; 0.0715 in [2]; -0.0186 in [3]; -1.06 in assay [4]; 0.0304 in [5]; 0.00114 in assay [6]. Moreover, the “uncleaved DNA left (log2)” value in [7] worked out at 0.0428; in [8], 0.084; in assay [9] it was 0.0517; in assay [10], 0.179.

Turning to CTGACTC, the “uncleaved DNA left (log2)” value in assay [1] is -0.19; in [2], -0.203; in assay [3] it was -0.0426; in assay [4], 0.307; in [5], -0.134; in assay [6] it was 0.134. For the same sequence, the “uncleaved DNA left (log2)” value in [7] is -0.0178; in [8], -0.287; in assay [9], -0.11; in assay [10], -0.184.

On to TTCTCTA, for which the “uncleaved DNA left (log2)” value in assay [1] was -0.0492; in assay [2] it was -0.0172; in [3], 0.195; in [4], -0.85; in assay [5] it was -0.061; in assay [6], 0.00209. Besides, the “uncleaved DNA left (log2)” value in assay [7] was -0.242; in [8], -0.033; in assay [9], -0.0587; in assay [10] it was 0.0568.

For the sequence AGGAGTC, the “uncleaved DNA left (log2)” value in assay [1] was 0.116; in assay [2], 0.119; in assay [3], 0.247; in [4] it was 0.588; in [5], -0.0188; in assay [6], 0.448. Further, the “uncleaved DNA left (log2)” value in assay [7] was 0.221; in [8], 0.0363; in assay [9], 0.028; in [10] it was 0.112.

On to ACGTTTC, for which the “uncleaved DNA left (log2)” value was 0.108 in assay [1]; -0.0358 in assay [2]; -0.105 in assay [3]; -0.227 in [4]; 0.00722 in assay [5]; -0.632 in [6]. Also, the “uncleaved DNA left (log2)” value in [7] was 0.118; in [8], 0.0189; in [9] it was -0.132; in assay [10] it was -0.0369.
